Out of some 43,000 compounds screened, about 200 (0.47%) were called active. About 12% were inconclusive and are not listed. The call rests on the fitted dose curve; in most records, active means well fitted cell-killing curve with a large enough effect; inconclusive means small, poorly fitted or top-dose-only effect, or effect the other way; inactive means flat fitted curve, though single readings scatter. The list shows a part of the results.
On the % scale 0 is the no-effect control and ±100 the full control effect.

The test in a line: Cell viability qHTS assay in S16 Pmp22-F2sN cells. Further: nearly all actives have a fitted effect of over 65% in size. Particulars: S16 Pmp22-F2sN Schwann cells (luciferase reporters placed in the Pmp22 gene) viability, CellTiter-Glo, 24 h; series mostly up to 57.5 µM; activity change, negative = cytotoxicity: at the top concentration. The essentials:
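Rat S16 Schwann reporter line, 24 h treatment with library compounds delivered at 23 nL per well. Cell viability by CellTiter-Glo luminescence.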
Background: In qHTS, concentration-response curves come from the screen itself.
As to `CCOC(=O)c1sc2ncn(CC(=O)Nc3ccc(C)cc3C)c(=O)c2c1C`, the “activity change, negative = cytotoxicity” value is inactive: -1.69%.
The value for `COc1ccc(C(=O)NCC(c2cccs2)S(=O)(=O)c2ccc(C)cc2)cc1` (stereo not given) was inactive: 3.19%.
Next, `COc1cc(Cl)c(C)cc1NC(=O)CN1c2ccccc2S(=O)(=O)c2ccccc21`: inactive: 20.6%; `CCCCn1c(CNC(=O)c2ccc(OC)cc2)nnc1SCC(=O)Nc1ccccc1`: inactive: 0.298%.
The value for `Cc1ccc(CNC(=O)CCC(=O)N2CC(C)Sc3ccccc32)cc1` (stereo not given) was inactive: -6.73%; that for `COc1ccc(-c2cc(C(C)=O)c(C)n2CCC(=O)NCc2ccc(F)cc2)cc1` was inactive: 1.28%.
As to `Cc1ccc(NC(=O)c2cc3c(=O)[nH]c4ccccc4c3n2C)cc1F`, the “activity change, negative = cytotoxicity” value is inactive: 11.7%.
Regarding `CCOC(=O)c1cccc(NC(=O)CCCn2c(C)c3cnn(-c4ccccc4)c(=O)c3c2C)c1`, the “activity change, negative = cytotoxicity” value is inactive: -0.155%.
Next, `COc1cc(C2CC(=O)Nc3c2c(=O)n(C)c(=O)n3C)cc(OC)c1OC` (stereo not given): inactive: -7.22%.
Next, `CCOC(=O)c1c(S(=O)(=O)NCC(=O)N2CCN(c3ccccc3OC)CC2)c(C)n(C)c1C`: inactive: 0.19%.
For `CC(=O)c1cccc(NS(=O)(=O)c2c(C)nc3sc(C)cn3c2=O)c1`, the “activity change, negative = cytotoxicity” value is inactive: -22.6%.
Next, `COc1ccc(CCNC(=O)NCc2noc3ccc(C)cc23)c(OC)c1`: inactive: 1.16%.
Next, `CCN(CC)c1cc2c(cc1F)c(=O)c(S(=O)(=O)c1ccccc1)cn2Cc1ccccc1`: inactive: -16.5%; `Cc1ccc2nc(N(CCCN(C)C)C(=O)c3ccc(Br)s3)sc2c1`: inactive: -9.72%; `CCCOc1cccc(C(=O)N(Cc2cc(OC)c(OC)c(OC)c2)C2CCS(=O)(=O)C2)c1` (stereo not given): inactive: -12.5%.
Next, `Cc1ccc(OCCn2nnc3sc4c(c3c2=O)CCC(C(C)(C)C)C4)cc1` (stereo not given): inactive: 10.3%.
As for `COc1ccc(-c2noc(N3CCC(C(=O)Nc4ccc(C)c(F)c4)CC3)n2)cc1OC`, the “activity change, negative = cytotoxicity” value was inactive: 12%.
Next, `COc1ccc(C2=Nc3ccc(C)cc3NC(c3ccc(Cl)cc3)=N2)cc1`: inactive: -5.15%.
Next, `Cc1ccc(Cl)cc1N1C(=O)N(Cc2ccc(C#N)cc2)c2ccccc2S1(=O)=O`: inactive: 8.73%; `COc1ccc(Cl)cc1NC(=O)CCCn1c(C)c2cnn(-c3ccccc3)c(=O)c2c1C`: inactive: -27.2%; `COc1ccc(CNC(=O)c2cccc(NC(=O)N3CCSc4ncccc43)c2)cc1`: inactive: 0.86%.
As to `CCCCNC(=O)CSc1nc2ccccc2nc1Cc1ccc(Cl)cc1`, the “activity change, negative = cytotoxicity” value was inactive: -0.27%.
As to `COc1ccc(NC(=O)CCNS(=O)(=O)c2cccc3nsnc23)cc1OC`, the “activity change, negative = cytotoxicity” value was inactive: -0.0248%.
Next, `COc1cccc(Cn2c(=O)n(-c3ccc(Br)cc3F)c(=O)c3sc4ccccc4c32)c1`: inactive: 3.36%.
The value for `COc1cc(OC)c(NC(=O)Nc2ccccc2OCc2cc(=O)n3cc(C)ccc3n2)cc1Cl` was inactive: 12%; that for `COc1ccc(CCNC(=O)CCc2c(C)nc3nc(C)nn3c2C)cc1OC` was inactive: -5.7%; that for `CCc1ccc(S(=O)(=O)c2nnn3c2nc(NC2CCCC2)c2sccc23)cc1` was inactive: 3.15%.
Next, `COc1ccc(C)cc1NC(=O)CCS(=O)(=O)c1ccc2c(c1)CC(=O)N2C`: inactive: -7.4%; `COCCNC(=O)c1cc(Sc2ccc(F)cc2F)nc2ccccc12`: inactive: 1.77%.
`CC1=C(C(=O)OCC2CCCCC2)C(c2c(F)cccc2Cl)CC(=O)N1` (stereo not given): the “activity change, negative = cytotoxicity” value is inactive: 21.3%.
Next, `COc1ccc(Cn2c(SCc3ccc(C(=O)NCc4ccccc4F)cc3)nc3cccnc32)cc1`: inactive: 8.07%.
Next, `Cc1cccc(-n2c(=O)c3c(c4cc(C)ccc4n3C)n(Cc3ccccc3F)c2=O)c1`: inactive: 3.73%.
The value for `COc1ccc(-n2ccn(Cc3ccc(C)cc3)c(=O)c2=O)cc1OC` was inactive: 2.82%.
Regarding `O=C(c1ccc2c(c1)N(Cc1ccc(F)cc1)C(=O)c1ccccc1S2(=O)=O)N1CCC(Cc2ccccc2)CC1`, the “activity change, negative = cytotoxicity” value is inactive: 0.259%.
As to `O=C(CSc1ccc2ccccc2n1)Nc1nsc(-c2ccc(Cl)cc2)n1`, the “activity change, negative = cytotoxicity” value was inactive: 6.64%.
The value for `COc1ccc(NC(=O)CN(C)S(=O)(=O)c2ccc3[nH]c4c(c3c2)CCCC4)cc1Cl` was inactive: -27.6%.
The value for `CC(=O)N1c2nc(-c3ccco3)nn2C2(CCCCC2)[C@@H]2CCCC[C@@H]21` was inactive: -4.68%; that for `COc1cc(C(=O)Nc2ccc(OCc3cc(=O)n4cc(C)sc4n3)cc2)cc(OC)c1OC` was inactive: 6.34%; that for `O=C(NCCc1ccccc1)c1c[nH]c2ccc(S(=O)(=O)Nc3ccccc3F)cc2c1=O` was inactive: -7.13%.
Next, `Cc1ccccc1NC(=O)CSc1nc2c(oc3ccccc32)c(=O)n1-c1ccccc1F`: inactive: -0.506%.
On to `CC1CCN(C(=O)c2cc(-c3ccc(Cl)cc3)on2)CC1`, for which the “activity change, negative = cytotoxicity” value was inactive: 23.8%.
The value for `CCOC(=O)c1sc(NC(=O)COc2ccccc2Cl)c(C(=O)OCC)c1C` was inactive: 13.4%; that for `O=C(Nc1ccc(O)c(-c2nc3ccccc3o2)c1)c1ccco1` was inactive: 8%.
The value for `COc1ccccc1N1CCN(C(=O)c2c3c(nc4ccccc24)C(=O)N(C2CCCCC2)C3)CC1` was inactive: 1.25%.
The value for `COc1ccc(-c2nc(CNS(=O)(=O)c3ccc(F)cc3)cs2)cc1` was inactive: -22.3%.
In the case of `CCCNC(=O)CN1C(=O)c2cccnc2Sc2ccccc21`, the “activity change, negative = cytotoxicity” value was inactive: 3.12%.
Next, `Cc1cccc(NC(=O)CSc2nc(C)c(Cc3ccccc3)c(=O)[nH]2)c1`: inactive: 1.32%; `COc1cc(OC)cc(-n2c(=O)c3ccccc3n(CC(=O)NCCc3ccc(OC)c(OC)c3)c2=O)c1`: inactive: -0.524%; `COc1ccc2cc(CNc3ccc(OC)c(OC)c3)c(=O)n(CC(=O)Nc3ccc(C)cc3)c2c1`: inactive: 4.24%.
The value for `O=C(CSc1nc2c(c(=O)[nH]1)CN(Cc1ccc3c(c1)OCO3)CC2)Nc1ccc(F)cc1` was inactive: 1.59%; that for `CCC(C)NC(=O)c1sc2nc(C)c(C(=O)Nc3ccc(Cl)cc3)c(-c3ccc(Br)cc3)c2c1N` (stereo not given) was inactive: -7.22%; that for `COc1cccc(-c2nc(C(N)=O)c3c(n2)n(-c2ccc4c(c2)OCO4)c(=O)n3C)c1OC` was inactive: 14.1%.
Next, `CSc1nc2c([nH]c3ccccc32)c(=O)n1-c1ccc(F)cc1`: inactive: 2.06%.
Regarding `CCc1ccc(NC(=O)c2ccc(CN3C(=O)C(C)=C(c4ccc(C)cc4)S3(=O)=O)cc2)cc1`, the “activity change, negative = cytotoxicity” value is inactive: 0.95%.
The value for `CCOc1ccc(-c2cc(C(F)(F)F)c(C#N)c(SCC(=O)Nc3ccccc3)n2)cc1` was inactive: 1.19%; that for `O=C(Cn1cc(S(=O)(=O)Cc2ccc(F)cc2)c2ccccc21)NCc1ccccc1` was inactive: -5.17%.
Next, `CCOc1ccccc1NC(=O)CSc1cc(=O)n(CC)c2ccccc12`: inactive: -11.5%; `Cc1ccc(-c2nc3c(cnn3-c3ccccc3)c(=O)n2-c2ccc(Cl)cc2)cc1`: inactive: -20.1%.
The value for `COc1cccc(OC)c1C(=O)Nc1ccc2c(c1)CCCN2S(=O)(=O)c1ccc(C)cc1` was inactive: -6.38%.
`O=C(COCc1cc(-c2ccco2)on1)Nc1ccc(OC(F)(F)F)cc1`: the “activity change, negative = cytotoxicity” value is inactive: 4.72%.

The values are drawn from PubChem BioAssay AID1508642 (National Center for Advancing Translational Sciences (NCATS), 2021).
